Reference: the supplement of paper PMC8728848
This is one part of the list.

Legend:
Assay in all cases: glycan array binding signal (z-score within array); higher = stronger binding
Settings in all cases: glycan notation: IUPAC condensed, linker removed
GlcNAc(b1-3)Gal = target: GlcNAc(b1-3)Gal
Summary of the method: (§1)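 The binding signal is a Z-score computed within each array. Data were drawn from 3228 arrays in the Consortium for Functional Glycomics database, restricted to those with a known protein sequence. Scores were averaged over arrays of the same protein sequence at different concentrations or buffers, and over linkers, and negative values can be taken as non-binding.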

[1] = target: GlcNAc(b1-3)Gal(b1-3)GalNAc
Summary of the method: as §1

GlcNAc(b1-3)Gal(b1-4)Glc = target: GlcNAc(b1-3)Gal(b1-4)Glc
Summary of the method: as §1

[2] = target: GlcNAc(b1-3)Gal(b1-4)GlcNAc
Summary of the method: as §1

[3] = target: GlcNAc(b1-3)Gal(b1-4)GlcNAc(b1-2)Man(a1-3)[GlcNAc(b1-3)Gal(b1-4)GlcNAc(b1-2)Man(a1-6)]Man(b1-4)GlcNAc(b1-4)GlcNAc
Summary of the method: as §1

[4] = target: GlcNAc(b1-3)Gal(b1-4)GlcNAc(b1-2)Man(a1-3)[GlcNAc(b1-3)Gal(b1-4)GlcNAc(b1-2)Man(a1-6)]Man(b1-4)GlcNAc(b1-4)[Fuc(a1-6)]GlcNAc
Summary of the method: as §1

[5] = target: GlcNAc(b1-3)Gal(b1-4)GlcNAc(b1-2)[GlcNAc(b1-3)Gal(b1-4)GlcNAc(b1-6)]Man(a1-6)[GlcNAc(b1-3)Gal(b1-4)GlcNAc(b1-2)Man(a1-3)]Man(b1-4)GlcNAc(b1-4)GlcNAc
Summary of the method: as §1

[6] = target: GlcNAc(b1-3)Gal(b1-4)GlcNAc(b1-3)Gal(b1-4)GlcNAc
Summary of the method: as §1

[7] = target: GlcNAc(b1-3)Gal(b1-4)GlcNAc(b1-3)Gal(b1-4)GlcNAc(b1-2)Man(a1-3)[GlcNAc(b1-3)Gal(b1-4)GlcNAc(b1-3)Gal(b1-4)GlcNAc(b1-2)Man(a1-6)]Man(b1-4)GlcNAc(b1-4)GlcNAc
Summary of the method: as §1

[8] = target: GlcNAc(b1-3)Gal(b1-4)GlcNAc(b1-3)Gal(b1-4)GlcNAc(b1-2)Man(a1-3)[GlcNAc(b1-3)Gal(b1-4)GlcNAc(b1-3)Gal(b1-4)GlcNAc(b1-2)Man(a1-6)]Man(b1-4)GlcNAc(b1-4)[Fuc(a1-6)]GlcNAc
Summary of the method: as §1

[9] = target: GlcNAc(b1-3)Gal(b1-4)GlcNAc(b1-3)Gal(b1-4)GlcNAc(b1-2)[GlcNAc(b1-3)Gal(b1-4)GlcNAc(b1-3)Gal(b1-4)GlcNAc(b1-6)]Man(a1-6)[GlcNAc(b1-3)Gal(b1-4)GlcNAc(b1-3)Gal(b1-4)GlcNAc(b1-2)Man(a1-3)]Man(b1-4)GlcNAc(b1-4)[Fuc(a1-6)]GlcNAc
Summary of the method: as §1

[10] = target: GlcNAc(b1-3)Gal(b1-4)GlcNAc(b1-3)Gal(b1-4)GlcNAc(b1-3)Gal(b1-4)GlcNAc(b1-2)Man(a1-3)[GlcNAc(b1-3)Gal(b1-4)GlcNAc(b1-3)Gal(b1-4)GlcNAc(b1-3)Gal(b1-4)GlcNAc(b1-2)Man(a1-6)]Man(b1-4)GlcNAc(b1-4)GlcNAc
Summary of the method: as §1

[11] = target: GlcNAc(b1-3)Gal(b1-4)GlcNAc(b1-3)Gal(b1-4)GlcNAc(b1-3)Gal(b1-4)GlcNAc(b1-2)Man(a1-3)[GlcNAc(b1-3)Gal(b1-4)GlcNAc(b1-3)Gal(b1-4)GlcNAc(b1-3)Gal(b1-4)GlcNAc(b1-2)Man(a1-6)]Man(b1-4)GlcNAc(b1-4)[Fuc(a1-6)]GlcNAc
Summary of the method: as §1

[12] = target: GlcNAc(b1-3)Gal(b1-4)GlcNAc(b1-3)Gal(b1-4)GlcNAc(b1-3)Gal(b1-4)GlcNAc(b1-2)[GlcNAc(b1-3)Gal(b1-4)GlcNAc(b1-3)Gal(b1-4)GlcNAc(b1-3)Gal(b1-4)GlcNAc(b1-6)]Man(a1-6)[GlcNAc(b1-3)Gal(b1-4)GlcNAc(b1-3)Gal(b1-4)GlcNAc(b1-3)Gal(b1-4)GlcNAc(b1-2)Man(a1-3)]Man(b1-4)GlcNAc(b1-4)[Fuc(a1-6)]GlcNAc
Summary of the method: as §1

[13] = target: GlcNAc(b1-3)Gal(b1-4)GlcNAc(b1-3)Gal(b1-4)GlcNAc(b1-3)Gal(b1-4)GlcNAc(b1-3)Gal(b1-4)GlcNAc(b1-2)Man(a1-3)[GlcNAc(b1-3)Gal(b1-4)GlcNAc(b1-3)Gal(b1-4)GlcNAc(b1-3)Gal(b1-4)GlcNAc(b1-3)Gal(b1-4)GlcNAc(b1-2)Man(a1-6)]Man(b1-4)GlcNAc(b1-4)GlcNAc
Summary of the method: as §1

[14] = target: GlcNAc(b1-3)Gal(b1-4)GlcNAc(b1-3)Gal(b1-4)GlcNAc(b1-3)Gal(b1-4)GlcNAc(b1-3)Gal(b1-4)GlcNAc(b1-2)Man(a1-3)[GlcNAc(b1-3)Gal(b1-4)GlcNAc(b1-3)Gal(b1-4)GlcNAc(b1-3)Gal(b1-4)GlcNAc(b1-3)Gal(b1-4)GlcNAc(b1-2)Man(a1-6)]Man(b1-4)GlcNAc(b1-4)[Fuc(a1-6)]GlcNAc
Summary of the method: as §1

[15] = target: GlcNAc(b1-3)Gal(b1-4)GlcNAc(b1-3)Gal(b1-4)GlcNAc(b1-3)Gal(b1-4)GlcNAc(b1-3)Gal(b1-4)GlcNAc(b1-2)[GlcNAc(b1-3)Gal(b1-4)GlcNAc(b1-3)Gal(b1-4)GlcNAc(b1-3)Gal(b1-4)GlcNAc(b1-3)Gal(b1-4)GlcNAc(b1-6)]Man(a1-6)[GlcNAc(b1-3)Gal(b1-4)GlcNAc(b1-3)Gal(b1-4)GlcNAc(b1-3)Gal(b1-4)GlcNAc(b1-3)Gal(b1-4)GlcNAc(b1-2)Man(a1-3)]Man(b1-4)GlcNAc(b1-4)[Fuc(a1-6)]GlcNAc
Summary of the method: as §1

[16] = target: GlcNAc(b1-3)Gal(b1-4)GlcNAc(b1-3)Gal(b1-4)GlcNAc(b1-3)GalNAc
Summary of the method: as §1

[17] = target: GlcNAc(b1-3)Gal(b1-4)GlcNAc(b1-3)GalNAc
Summary of the method: as §1

[18] = target: GlcNAc(b1-3)Gal(b1-4)GlcNAc(b1-3)[GlcNAc(b1-3)Gal(b1-4)GlcNAc(b1-3)]GalNAc
Summary of the method: as §1

[19] = target: GlcNAc(b1-3)Gal(b1-4)GlcNAc(b1-6)[Gal(b1-3)]GalNAc
Summary of the method: as §1

[20] = target: GlcNAc(b1-3)Gal(b1-4)GlcNAc(b1-6)[GlcNAc(b1-3)Gal(b1-3)]GalNAc
Summary of the method: as §1

[21] = target: GlcNAc(b1-3)Gal(b1-4)GlcNAc(b1-6)[GlcNAc(b1-3)]Gal(b1-4)GlcNAc
Summary of the method: as §1

B1: Nictaba (Nicotiana tabacum), Q94EW1 (protein)
chain: MQGQWIAARDLSITWVDNPQYWTWKTVDPNIEVAELRRVAWLDIYGKIETKNLIRKTSYAVYLVFKLTDNPRELERATASLRFVNEVAEGAGIEGTTVFISKKKKLPGELGRFPHLRSDGWLEIKLGEFFNNLGEDGEVEMRLMEINDKTWKSGIIVKGFDIRPN
glycan array binding signal (z-score) (GlcNAc(b1-3)Gal): -0.285 | glycan array binding signal (z-score) [1]: -0.35 | glycan array binding signal (z-score) (GlcNAc(b1-3)Gal(b1-4)Glc): -0.284 | glycan array binding signal (z-score) [2]: -0.307 | glycan array binding signal (z-score) [3]: 2.81 | glycan array binding signal (z-score) [4]: 3.19 | glycan array binding signal (z-score) [5]: 0.107 | glycan array binding signal (z-score) [6]: -0.285 | glycan array binding signal (z-score) [7]: 1.39 | glycan array binding signal (z-score) [8]: 2.94 | glycan array binding signal (z-score) [9]: 0.295 | glycan array binding signal (z-score) [10]: 2.71 | glycan array binding signal (z-score) [11]: 2.59 | glycan array binding signal (z-score) [12]: 0.017 | glycan array binding signal (z-score) [13]: 1.79 | glycan array binding signal (z-score) [14]: 3.52 | glycan array binding signal (z-score) [15]: 0.068 | glycan array binding signal (z-score) [16]: -0.388 | glycan array binding signal (z-score) [17]: -0.389 | glycan array binding signal (z-score) [18]: -0.387 | glycan array binding signal (z-score) [19]: -0.389 | glycan array binding signal (z-score) [20]: -0.387 | glycan array binding signal (z-score) [21]: -0.379
